Assay results from PubChem BioAssay AID624173 (National Center for Advancing Translational Sciences (NCATS), 2012).
About 490 (0.12%) of roughly 410,000 compounds were called active. The shares of active, inactive and inconclusive entries below differ from those in the screen. The call rests on the fitted dose curve; in most records, active means well fitted inhibition curve with a large enough effect; inconclusive means small, poorly fitted or top-dose-only effect; inactive means flat fitted curve, though single readings scatter. Where the call is inconclusive, the potency comes from a doubtful curve fit.

Each compound was assayed against pyruvate kinase (Trypanosoma brucei) (UniProt Q57TT1) (assay: qHTS of Trypanosoma Brucei Inhibitors). Conditions: TbPYK enzyme, Kinase-Glo Plus ATP luminescence, 45 min; series mostly up to 76.8 µM.
Outline: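 In this concentration-response screen, enzyme-free wells defined baseline while DMSO plates tracked drift. Each reaction combined TbPYK, substrate, compound and 130 uM ADP for 45 min at room temperature. Kinase-Glo Plus luminescence gave the signal.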
Further: nearly all actives have a fitted effect of over 50% in size.
Potency means the concentration at half of the fitted maximal effect; tags describe the fitted curve by direction and shape.

| Compound | Potency |
| --- | --- |
| Cc1ccc(-c2cc(C(=O)NCc3ccccn3)c3ccccc3n2)cc1C | inconclusive: 14.1 µM [inhibitor, partial curve, poor fit] |
| S=C(NCCc1ccccc1)Nc1c(Cl)cccc1Cl | inactive |
| Cc1ccc2oc(-c3cc(NC(=O)c4ncn[nH]4)ccc3O)nc2c1 | inactive |
| CCN1CCc2nc(N)sc2C1 | inconclusive: 11.2 µM [inhibitor, partial curve] |
| COc1ccc(-n2c(COc3ccc(C)cc3)n[nH]c2=S)cc1 | inconclusive: 17.8 µM [inhibitor, partial curve] |
| CCOC(=O)C1CCCN(C(=O)CSc2ccc(Br)cc2)C1 (stereo not drawn) | inconclusive: 28.2 µM [inhibitor, single point] |
| CSc1cccc(NC(=O)NCc2cccc(CNC(=O)Nc3cccc(SC)c3)c2)c1 | inactive |
| C=CCn1c(CSc2ccccc2[N+](=O)[O-])n[nH]c1=S | inconclusive: 2.51 µM [inhibitor, full curve, poor fit] |
| CCOC(=O)Cn1cnc2sc(C(=O)OC)c(C)c2c1=O | inactive |
| O=C(O)c1ccc(/C=N/n2cc(-c3ccccc3)[nH]c2=S)cc1 | inconclusive: 17.8 µM [inhibitor, partial curve, poor fit] |
| CN(C)c1ccc(C=C2C(=O)NC(=O)NC2=O)cc1[N+](=O)[O-] | inconclusive: 35.5 µM [inhibitor, partial curve, poor fit] |
| COc1ccc(-c2nnc(SCCC(=O)O)n2-c2ccccc2)cc1 | inconclusive: 31.6 µM [inhibitor, partial curve] |
| Cc1c(Cl)c(-c2n[nH]c(=S)n2-c2ccccc2)nn1C | active: 2.82 µM |
| COc1ccc2[nH]cc(C(=O)CN(C)C)c2c1 | inactive |
| COc1ccc(-c2n[nH]c(=S)n2-c2ccc3c(c2)OCCO3)cc1 | inconclusive: 22.4 µM [inhibitor, partial curve, poor fit] |
| O=C(O)CCc1ccc(-c2ccc(Br)cc2)o1 | inconclusive: 39.8 µM [inhibitor, single point] |
| O=C(Nc1ccccn1)c1cc2ccccc2o1 | inconclusive: 39.8 µM [inhibitor, partial curve, poor fit] |
| CCCN1CCN(C(=O)c2ccc(-c3ccc([N+](=O)[O-])cc3)o2)CC1 | inconclusive: 28.2 µM [inhibitor, partial curve] |
| CSc1nnc(N2C(=O)C(O)=C(C(=O)c3ccco3)C2c2ccccc2F)s1 (stereo not drawn) | inconclusive: 3.55 µM [inhibitor, full curve, poor fit] |
| CCC1(O)C(=O)OCc2c1cc1n(c2=O)Cc2cc3cc(O)ccc3nc2-1 (stereo not drawn) | inconclusive: 12.6 µM [inhibitor, partial curve] |
| COC(=O)c1ccc2nc(NC(=O)CN3C(=O)CCC3=O)sc2c1 | inconclusive: 35.5 µM [inhibitor, single point] |
| CCOC(=O)c1c(C)[nH]c(C2=NNC(=NC(C)COC)SC2)c1C (stereo not drawn) | inconclusive: 17.8 µM [inhibitor, partial curve, poor fit] |

| Compound | Potency |
| --- | --- |
| CC1(C(=O)CSc2nc3ccccc3s2)CCC(=O)O1 (stereo not drawn) | inconclusive: 31.6 µM [inhibitor, partial curve, poor fit] |
| FC(F)Oc1ccc(/C=N/n2c(Cc3ccc(Br)cc3)n[nH]c2=S)cc1 | inconclusive: 39.8 µM [inhibitor, partial curve, poor fit] |
| O=C(N/N=C/c1ccccc1)c1[nH]ncc1Br | inconclusive: 31.6 µM [inhibitor, partial curve, poor fit] |
| Cc1[nH]c2ccccc2c1C1=CC(=O)C=CC1=O | active: 3.98 µM |
| O=C(NC1CCN(Cc2ccccc2)CC1)c1ccccc1OCc1ccccc1 | inactive |
| S=C1NC=NC2N=CNC12 (stereo not drawn) | inconclusive: 12.6 µM [inhibitor, partial curve] |
| COc1ccc(-c2n[nH]c(=S)n2-c2ccccc2C)cc1 | inconclusive: 3.55 µM [inhibitor, full curve, poor fit] |
| O=C(Nc1ccccc1)c1nnsc1S(=O)c1ccc(Cl)cc1 (stereo not drawn) | inconclusive: 28.2 µM [inhibitor, partial curve] |
| O=c1cc(O)n(-c2ccc(Cl)cc2)c(=S)[nH]1 | inconclusive: 35.5 µM [inhibitor, single point] |
| CCN(CC)Cc1cc(Nc2c3ccccc3nc3c4ccccc4n(C)c23)cc(CN(CC)CC)c1O | inconclusive: 35.5 µM [inhibitor, partial curve, poor fit] |
| Cc1cc(C)n(-c2nc3ccccc3nc2Nc2ccc(Cl)c(C(=O)OC(C)C)c2)n1 | inactive |
| O=C(c1ccccc1F)c1cn(CC(=O)N2CCCC2)c2ccccc12 | inconclusive: 39.8 µM [inhibitor, single point] |
| O=C(c1ccccc1)c1ccc2nc(-c3ccco3)c(-c3ccco3)nc2c1 | inconclusive: 35.5 µM [inhibitor, partial curve, poor fit] |
| Cn1c(C(=O)N2CCCC(C(=O)NCCc3ccccc3)C2)cc2sccc21 (stereo not drawn) | inconclusive: 31.6 µM [inhibitor, partial curve] |
| Cc1ccc(C2=Nc3ccccc3N=C(c3ccco3)C2)c(O)c1 | inactive |
| CCCCS(=O)(=O)/C=C\C=C/S(=O)(=O)CCCC | inconclusive: 11.2 µM [inhibitor, partial curve, poor fit] |
| Cc1ccc(C2=NC(=O)/C(=C/c3cc(O)c(O)c(Br)c3)S2)cc1 | inconclusive: 12.6 µM [inhibitor, partial curve, poor fit] |
| Cn1c(-c2sc3cc(C(F)(F)F)cnc3c2-c2cccnc2)n[nH]c1=S | inconclusive: 20 µM [inhibitor, partial curve, poor fit] |
| Fc1cccc(-c2nnn3c2nc(NCCc2ccccc2)c2ccccc23)c1 | inactive |
| C=CCc1c(C)nc(-c2ccccc2)nc1N/N=C/c1ccccc1 | inactive |
| Cc1ccc(S(=O)(=O)N2CCN(C(=O)CN3CCN(c4ccc(O)cc4)CC3)CC2)cc1 | inconclusive: 28.2 µM [inhibitor, partial curve] |
